In general, Km refers to the concentration of substrate that gives half-maximal velocity.

Entries with a single value are a further part of the results.

1 protein from PMC7558535, “In Vitro Metabolism of DWP16001, a Novel Sodium-Glucose Cotransporter 2 Inhibitor, in Human and Animal Hepatocytes” (Pharmaceutics, 2020) can be followed below.

Substrate in this data set: OC[C@H]1O[C@@H](c2cc(Cc3ccc(C4CC4)cc3)c(Cl)c3c2CCO3)[C@H](O)[C@@H](O)[C@@H]1O
Nature of the data set: Enzyme kinetics of metabolite formation in cDNA-expressed CYP2C19 supersomes. The data set is classed as in vitro ADME, human. The note with it: other: CYP2C19 supersomes, DWP16001 1–200 μM, NADPH, 37.0 °C. The method, then:
To calculate the enzyme kinetic parameters for the M1 and M2 formation from DWP16001, DWP16001 (final concentrations, 1–200 μM) was incubated with NADPH-generating system, pooled human liver microsomes (0.25 mg/mL), or human cDNA-expressed CYP3A4 or CYP2C19 supersomes (10 pmol) at 37 °C for 30 min in triplicate. Reactions were stopped by addition of 400 μL of ice-cold ketoconazole (200 ng/mL) in acetonitrile. Following vortex-mixing and centrifugation (15,000× g, 8 min, 4 °C), 75 μL aliquots of the supernatant were diluted with 75 µL of 30% acetonitrile; 5 μL aliquots were injected into an LC−MS/MS system.
Apparent kinetic parameters (Km, Vmax and n) for the formation of M1, M2, and M3 from DWP16001 by human liver microsomes, CYP3A4, or CYP2C19 were calculated as follows: the unweighted formation rates of M1, M2, and M3 over a range of DWP16001 concentrations were fitted to the Hill equation model [V = Vmax × S^n/(Km^n + S^n)] or the single enzyme model [V = Vmax × S/(Km + S)] using Enzyme Kinetics software (version 1.1 SPSS Inc., Chicago, IL, USA). In the above equations, V means the reaction velocity of the formation of M1, M2, and M3 at given concentration [S] of DWP16001, Vmax means the maximum reaction velocity, n means the Hill constant, and Km means the DWP16001 concentration at which the reaction velocity is 50% of Vmax.

B1: CYP2C19 (Homo sapiens) (protein)
chain: MDPFVVLVLCLSCLLLLSIWRQSSGRGKLPPGPTPLPVIGNILQIDIKDVSKSLTNLSKIYGPVFTLYFGLERMVVLHGYEVVKEALIDLGEEFSGRGHFPLAERANRGFGIVFSNGKRWKEIRRFSLMTLRNFGMGKRSIEDRVQEEARCLVEELRKTKASPCDPTFILGCAPCNVICSIIFQKRFDYKDQQFLNLMEKLNENIRIVSTPWIQICNNFPTIIDYFPGTHNKLLKNLAFMESDILEKVKEHQESMDINNPRDFIDCFLIKMEKEKQNQQSEFTIENLVITAADLLGAGTETTSTTLRYALLLLLKHPEVTAKVQEEIERVIGRNRSPCMQDRGHMPYTDAVVHEVQRYIDLIPTSLPHAVTCDVKFRNYLIPKGTTILTSLTSVLHDNKEFPNPEMFDPRHFLDEGGNFKKSNYFMPFSAGKRICVGEGLARMELFLFLTFILQNFNLKSLIDPKDLDTTPVVNGFASVPPFYQLCFIPV
notes: purchased Corning Life Sciences
In the case of B1, the Km runs as follows: (M1 formation) 156.4 µM; (M2 formation) 35.4 µM.
